Measurements as given in patent publication US20260207762A1.

Molecular target: human PD-1 expressed on cells (human) (UniProt Q15116)
Assay: flow cytometry, CHO-S hPD-1 cells

UniProt Q15116, sequence (Q15116 25-288): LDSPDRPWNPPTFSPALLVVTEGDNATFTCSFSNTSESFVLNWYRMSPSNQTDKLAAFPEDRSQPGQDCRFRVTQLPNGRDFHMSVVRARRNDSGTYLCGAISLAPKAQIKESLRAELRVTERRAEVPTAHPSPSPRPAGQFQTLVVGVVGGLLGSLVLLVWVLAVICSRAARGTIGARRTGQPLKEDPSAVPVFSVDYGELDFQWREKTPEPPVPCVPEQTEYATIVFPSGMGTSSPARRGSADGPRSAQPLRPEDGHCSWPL

Top MFI: 0 MFI
B1: z8-XVT458 (antibody, part only; not given: light chain variant, part only)
heavy: QVQLVQSGAEVKKPGASVKVSCKASGYTFTNFYIHWVRQAPGQGLEWMGSIYPNYGDTAYNQKFKDRATMTVDKSTSTAYMELRSLRSDDTAVYYCARGYSYAMDYWGQGTTVTVSS[not shown - human IgG1 constant region]
